The values that follow come from article PMC12136788.

This is one part of the list.

Sequences and labels used below:
B1: chr1:220276048:220276049:+_ENSG00000067704_ENST00000302637|hu_hu|hu_hu_hu_mus_True|8_18 (ssRNA)
RNA: GGGAGUUCUACAGUCCGACGAUCGCAAAUUGCCUGGUUGGCGGGAAUUGUCCAAGGCUGGGUGGUCCAAACUAAAACGCUAACAGGGGAUGAGGCAUCUGUAAGAGACUCCAACUUUGGAGAAGGCUUUAAGAGAGGGAAUCUCAACAGAGGAUUGAGCAUCA
B2: chr18:77179482:77179483:+_ENSMUSG00000090000_ENSMUST00000026487|mus_mus|motif|central (ssRNA)
RNA: GGGAGUUCUACAGUCCGACGAUCAAGUAUGCUCCAAUCCGGGAGUGCUCCUGCCUCUGAUAAUCUGAUCUACAAGUGCAACGGCAAUUAAAAAAAAAAAAAAAUCAGAUAGAUAGAAACUCUGGUUUUAUUGUCAACUUUACUCAACAGAGGAUUGAGCAUCA
B3: chr22:19452774:19452775:-_ENSG00000070010_ENST00000399523|hu_hu|hu_hu_hu_mus_False|1_38 (ssRNA)
RNA: GGGAGUUCUACAGUCCGACGAUCCUUCUCAUUGUAGUUGAUAGCAAUCACAUCUCCAGUCGUCAGACAGGCGAAGUUUCUCAAUGCAUUUUCUAAUACGGCUUUGGGGUUGGUAAUAUCCAGGAAGUCUGGGCUCUGAGGUUGCAACAGAGGAUUGAGCAUCA
B4: 165880688_165880808_2178_3pUTR_ENSMUSG00000027678_ENSMUST00000088095|mouse|control|control (ssRNA)
RNA: GGGAGUUCUACAGUCCGACGAUCUUCUCUUGCAACAGAGACCCAUGCACAUUGGAGGUGGAAGACACUGUCCCUGAUGUUGAGGAGGACACUCCAGAGGGGCUGGUGACACUAACGGAAGAGUCUUUGCAGUUUGGAUCCAGGCAACAGAGGAUUGAGCAUCA
B5: 80010050_80019531_730_3pUTR_ENSMUSG00000022024_ENSMUST00000054908|mouse|control|control (ssRNA)
RNA: GGGAGUUCUACAGUCCGACGAUCUCAUUUUAAUUUCAAUCUUUGUUGAAAGUACUUUGAAUGUACUCUGUUCUGGUAUUAUAGGGUGGAGCAGCCUCAGCUUCAAACUGUAGUCUUCUCCAGCAGGAAUUUUCACCAAAGCAGCAACAGAGGAUUGAGCAUCA
B6: 192206245_192214914_558_CDS_ENSG00000128641_ENST00000304164|human|control|control (ssRNA)
RNA: GGGAGUUCUACAGUCCGACGAUCGUCAAAUUCAAUAUCCAUAUAUUUGCCAAAUCUAGAGGAGUUGUCAUUCCUUACAGUUUUGGCAUUUCCAAAAGCUUCCAGGACCGGGUUGGACUGUAAAAGCUGUUCUUUAACUUGAUUCAACAGAGGAUUGAGCAUCA
B7: chr1:39494564:39494565:+_ENSG00000168653_ENST00000372967|hu_hu|hu_hu_hu_mus_True|28_28 (ssRNA)
RNA: GGGAGUUCUACAGUCCGACGAUCAUGCAUUCGCCUCAUCGUUUUGUACCGAAGCAAGCACUCUUCGAAGUCAUCGAACUCUAUCUUGCACUCCUUUUUCGCCCGGGUAUAACCGAUCCCGUGUGCACACUCUAUCCACUCUUUCAACAGAGGAUUGAGCAUCA
B8: 100648999_100653633_2881_CDS_ENSMUSG00000028532_ENSMUST00000030257|mouse|control|control (ssRNA)
RNA: GGGAGUUCUACAGUCCGACGAUCCCUCAGUGUGAAGUCGAUACCCAUCACAGCCACGGUGUGCCCGGAAGACAGCUGUGUACUGGAUGAGUGAAUUGUGUGGCUGAUUGUCACGACAUAGCCAGCUCCUCCAACAUCCAGGUACAACAGAGGAUUGAGCAUCA
B9: chr14:96997824:96997825:+_ENSG00000090060_ENST00000216277|hu_hu|FALSE|FALSE (ssRNA)
RNA: GGGAGUUCUACAGUCCGACGAUCAUUUUUUAGCAGACUGUCAUCUCGUAGAUCCAAAUCUUCAGGAAUUGUCUGCAGUGCUAAUCUUGCAAACAAAAUAUCAAUCUCUAUCCCAUCAAAACAGAGUUUAAUAACUGGUACGAACAACAGAGGAUUGAGCAUCA
B10: chr9:111175927:111175928:+_ENSMUSG00000046785_ENSMUST00000060711|mus_mus|FALSE|FALSE (ssRNA)
RNA: GGGAGUUCUACAGUCCGACGAUCUCUUACAGAAAUAGGCGCAUAUUCCGGUUUAAAGCUAAAUGGAUUUGAGAAAAGUUCUAAGUCCUUUUUAAUGAACCUGAGGUCCUUAAAAUGUCUCUCAAAAUCUUUCUGUAGGCGGGACAACAGAGGAUUGAGCAUCA
B11: chr17:57759655:57759656:+_ENSG00000141367_ENST00000269122|hu_hu|motif|central (ssRNA)
RNA: GGGAGUUCUACAGUCCGACGAUCUCGAGCCUUCUUACGGGCCAUCUGCAAGUACUUCACCAGUUCUUCCCAGUUUCCACGGGUAUUGGCAGCCUGAACAACUUCCAUGUAGGAGGAAGGAUCAUCUGCUUUGAUAUAAGAAUCCAACAGAGGAUUGAGCAUCA
B12: 152119959_152123208_800_CDS_ENSMUSG00000070348_ENSMUST00000093962|mouse|control|control (ssRNA)
RNA: GGGAGUUCUACAGUCCGACGAUCGCGGUAGCAGGAGAGGAAGUUGUUGGGGCUGCCCAGGUUCAGGCCUUGCAUCGCAGCCACCACGCUCCCAGCAGCUACCAUGGAGGGUGGGUUGGAAAUGAACUUCACAUCUGUGGCACACAACAGAGGAUUGAGCAUCA
B13: chr1:109474883:109474884:-_ENSG00000121940_ENST00000369970|hu_hu|FALSE|FALSE (ssRNA)
RNA: GGGAGUUCUACAGUCCGACGAUCGGAGGUUGCAGUGAGCCGAGAUUGUACCACCUCACUCCAGCCUGGGUGACAGAGCAAAACUCUCAAAAAAAAGUAAAAUUUCAAAAAAGCUUCACAAUAUAAACCUUAAUUUUAAUGACACAACAGAGGAUUGAGCAUCA
B14: chr22:32879901:32879902:+_ENSG00000100225_ENST00000397426|hu_mus|hu_hu_hu_mus_False|38_58 (ssRNA)
RNA: GGGAGUUCUACAGUCCGACGAUCCUCUUCCAUACUCAUGGCAUCCUGAAUUGACUCAGCUUCAACAUUUUGACUAGGCCCUAACAUACUGUCAUCAUUCCAAACACCAAAUGGGGUGGCCUGUCCUUGGGAUGAAUCAGUCCCCAACAGAGGAUUGAGCAUCA
B15: chr4:25749455:25749456:-_ENSG00000091490_ENST00000264868|hu_hu|hu_hu_hu_mus_False|1_8 (ssRNA)
RNA: GGGAGUUCUACAGUCCGACGAUCGCACUAUGACCUCUAGAAAAAUCCACAGGGGGAAAAAAUGUAAACCAAUGUACAAUGUUAUCGCCUUCCCUGUGUGUGGAGUGUUUGUCUCAAGGCUCCUUCUUGCCUUAUAACUGCUAGCAACAGAGGAUUGAGCAUCA
B16: 156817637_156819921_3628_CDS_ENSG00000055163_ENST00000521420|human|control|control (ssRNA)
RNA: GGGAGUUCUACAGUCCGACGAUCCAUGUAUUUGUUCAGGAUGGCAAAAACCUCAUUGUUCAAGAUCUGAUACUUCCUGAUCCGGUCGGCCAUCUUCUUCAGGGGCACAUUCUUAAUGAUUUCAUCCUUCCCGUCCUGCCUCUGCAACAGAGGAUUGAGCAUCA
B17: 34520397_34521566_398_CDS_ENSMUSG00000037235_ENSMUST00000042701|mouse|control|control (ssRNA)
RNA: GGGAGUUCUACAGUCCGACGAUCCUCCUCCAGUUUCUUGAUGUGCAUCUUAGCACGCUUCAGAAGGCUCAGAGUAGUGUGACGUGUGCUGUCAGGGCCCAGGGGUACCAGCUGCUUGAGCUGCUCCAAGUAGAGCCUGAGUUUCAACAGAGGAUUGAGCAUCA
B18: chr1:171562549:171562550:+_ENSG00000117523_ENST00000495585|hu_hu|FALSE|FALSE (ssRNA)
RNA: GGGAGUUCUACAGUCCGACGAUCUGUAGAUAAGACCUUACAUAUUUAAUACAGUGCGUUACCCCUGUACAAAUGGAAAAAAAUUAAGUUUAACGUUUCUAGACCAAUAUGGCUGUUAAUUUCUGUACAAUGCCAACUCAACACCAACAGAGGAUUGAGCAUCA
B19: chr11:75578903:75578904:+_ENSMUSG00000020849_ENSMUST00000067664|mus_mus|FALSE|FALSE (ssRNA)
RNA: GGGAGUUCUACAGUCCGACGAUCUAGCUUCAAGUUACACGUACUGAACAAAAGAGGUUGAGCGAGCGAAGGAGGGGAGGAGGGAGGCCGAGGAGGAGGGAGGAGGAACAGAGUUGAACACGCAUGCAGGCUUCCAUACCACCUCAACAGAGGAUUGAGCAUCA
B20: chr17:57762449:57762450:+_ENSG00000141367_ENST00000269122|hu_mus|FALSE|FALSE (ssRNA)
RNA: GGGAGUUCUACAGUCCGACGAUCUUCGUGUUUUUCCAAACGCUGAGCAAGUGAGAUGUUGUCAAAGUUGUCAUAAGCAUCUAUUGAUGUUCGCAGAGCCUGGUAAUCUUCUUCAGUAAUAAAGAGGUUGUUCAGUGAUUCAUUCAACAGAGGAUUGAGCAUCA
B21: chr4:95589192:95589193:+_ENSG00000163110_ENST00000317968|hu_hu|FALSE|FALSE (ssRNA)
RNA: GGGAGUUCUACAGUCCGACGAUCAAAAUUAAAGAGACAGAAGAUAGACAUUAACAGAUAAGGCAACUUAUACAUUGAGAAUCCAAAUCCAAUACAUUUAAACAUUUGGGAAAUGAGGGGGACAAAUGGAAGCCAGAUCAAAUUCAACAGAGGAUUGAGCAUCA
B22: 70526834_70526954_91_5pUTR_ENSMUSG00000054693_ENSMUST00000067880|mouse|control|control (ssRNA)
RNA: GGGAGUUCUACAGUCCGACGAUCCGCGACCGGCGCUGGGUCCCGACGAGCCUCCCCGGCAGUGGCACCCGGCGAAGCGCCUCCCUCUCGCUCCACUUCAGGGGCCCAGCCGCGCGCCCUGCUCCGCCAAAACAGGGCCCUCCCCAACAGAGGAUUGAGCAUCA

The target of the assay is T1, UNK ZnF1-3 (human, UniProt Q9C0B0 31-174).
T1 sequence: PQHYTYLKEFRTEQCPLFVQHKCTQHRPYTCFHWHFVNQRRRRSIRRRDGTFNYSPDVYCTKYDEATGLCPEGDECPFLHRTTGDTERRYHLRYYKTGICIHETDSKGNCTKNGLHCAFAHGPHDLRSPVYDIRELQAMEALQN
As to the kind of experiment: nsRBNS (natural sequence RNA bind-n-seq); RBNS binding buffer (assumed for nsRBNS): 25 mM Tris pH 7.5, 150 mM KCl, 3 mM MgCl2, 0.01% Triton X-100, 500 ug/ml BSA, 20 U/ml SUPERase-In, 4 C; UNK is unkempt and MSI1 is Musashi-1; names of the RNAs are library labels; protein concentration not given here; high values mean tight binding.
In turn, B1 returned a binding signal of 2.04 enrichment R.
The same measure for B2: 2.39 enrichment R.
Next, B3: 0.906 enrichment R; B4: 1.02 enrichment R.
Next, B5: 0.514 enrichment R; B6: 1.08 enrichment R.
Molecule B7 displayed a binding signal of 0.64 enrichment R.
As to B8, the binding signal is 0.776 enrichment R.
Next, B9: 0.565 enrichment R; B10: 0.957 enrichment R; B11: 0.984 enrichment R.
Next, B12: 0.907 enrichment R; B13: 1.09 enrichment R; B14: 1.21 enrichment R.
Next, B15: 0.855 enrichment R.
With B16, the binding signal worked out at 0.619 enrichment R.
Next, B17: 0.787 enrichment R.
Next, B18: 0.867 enrichment R; B19: 1.81 enrichment R; B20: 0.767 enrichment R.
Regarding B21, the binding signal stood at 2.88 enrichment R.
The same measure for B22: 0.61 enrichment R.
